From article PMC7380579

What was measured:
[1] = biological target: T1, PerR (PerR:Zn,Mn) (Streptococcus oligofermentans (AS 1.3089?)) (UniProt A0ABN4B511); test: EMSA; settings: 10 mM Tris-HCl pH 8.0, 50 mM NaCl, 5% glycerol, 10 ug/ml BSA, 2 ng/ul poly(dI-dC), 0.5 mM DTT, 1 mM MnCl2; Chelex-treated; 0.2 nM probe; 30 C, 30 min; 6% PAGE …
T1 sequence: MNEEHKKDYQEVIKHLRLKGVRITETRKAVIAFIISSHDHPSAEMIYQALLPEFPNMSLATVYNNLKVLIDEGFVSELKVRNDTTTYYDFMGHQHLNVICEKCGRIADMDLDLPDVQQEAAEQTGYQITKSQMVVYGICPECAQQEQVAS

[2] = test system: PerR (PerR:Zn,Mn) (Streptococcus oligofermentans (AS 1.3089?)); test: EMSA; settings: 10 mM Tris-HCl pH 8.0, 50 mM NaCl, 5% glycerol, 10 ug/ml BSA, 2 ng/ul poly(dI-dC), 0.5 mM DTT, 1 mM MnCl2, Chelex-treated, 0.2 nM probe, 30 C, 30 min

Substance	Kd [1]	binding [1]	Kd ([2]; 1 mM Mn2+, 6% PAGE o)	binding signal (% of untreated complex) ([2]; PerR:Zn,Mn (50 nM) pretreated with 200 uM H2O2, 5 min (text: ~59% inactivated), 6% PAGE …)
AATGACCAAGCCTAGAAATGAGGCTAAAATCGTTCCGACCAGAAAAAAGTATAGATGTATCATACTTATTTATTCGTGATTTTGAGCAGAAAAATTTTGAAATTTTACAACTTTTCTAATAAAGTAAAATTTTTAGTTTTAATACTTGACTTTCTTAATTAGAAGCATTATAATTAAAACATAATCAATAAAGATTAGAATGATTACAAATAAAAAGAGAGGTATCATT (double strand) [dpr promoter]	50 nM	binds		
CATTTCAATCATTGTTACACCTCTTTTGTTTTAATATACATTAAAATGAAAATTAAGTCAAGTTAATTTTTGAAAAATCCTTGAAATCAATATAGGAAATATTTGAAAAAAGGAGCTAATTTTGATAAGGTTATATCAAAAGTATGAAAGTGAGAACAAGATGACACGTTTACAAGATGATTTTTATGATGCCATTAATGGTGAATGGGCCAAAACAGCGGTTATCCCAGAT (double strand) [mntABC promoter]		no binding		
dpr promoter			50 nM	41
